# In PMC6919601, “Identification of Plasmodium dipeptidyl aminopeptidase allosteric inhibitors by high throughput screening” (PLoS ONE, 2019):
# Among all 110,000 compounds or so, about 230 (0.21%) showed an effect of 50% or more. This is one part of the list.
# Molecular target: DPAP1 (Plasmodium falciparum, UniProt Q8IIJ9)
# Experiment: primary screen, percent inhibition; read by cleavage of a fluorogenic dipeptide substrate; higher = more effect of the substance
# Parameters: species or system P. falciparum D10 trophozoite lysates; single well
# 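Also: 30 min substrate incubation versus DMSO and 10 µM JCP410 controls.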
# DPAP1, sequence (Q8IIJ9 whole entry, looked up): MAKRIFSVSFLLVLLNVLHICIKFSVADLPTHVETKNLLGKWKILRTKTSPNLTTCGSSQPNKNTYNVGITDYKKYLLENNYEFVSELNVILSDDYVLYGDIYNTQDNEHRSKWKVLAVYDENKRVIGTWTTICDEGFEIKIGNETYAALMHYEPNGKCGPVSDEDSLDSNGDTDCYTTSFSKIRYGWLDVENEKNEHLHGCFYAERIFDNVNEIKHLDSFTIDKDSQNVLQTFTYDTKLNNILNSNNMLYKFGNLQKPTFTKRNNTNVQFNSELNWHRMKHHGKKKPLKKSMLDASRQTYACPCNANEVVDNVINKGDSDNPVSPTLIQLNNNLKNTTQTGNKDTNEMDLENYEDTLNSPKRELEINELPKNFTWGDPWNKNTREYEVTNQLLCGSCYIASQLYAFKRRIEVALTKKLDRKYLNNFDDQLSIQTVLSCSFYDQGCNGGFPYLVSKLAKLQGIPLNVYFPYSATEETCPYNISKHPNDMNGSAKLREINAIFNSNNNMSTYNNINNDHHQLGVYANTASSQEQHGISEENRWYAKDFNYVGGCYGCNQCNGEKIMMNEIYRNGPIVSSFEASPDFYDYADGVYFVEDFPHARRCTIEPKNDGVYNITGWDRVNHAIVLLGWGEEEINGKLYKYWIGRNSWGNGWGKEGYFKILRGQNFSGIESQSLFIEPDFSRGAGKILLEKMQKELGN
row,SMILES,% Inhibition @ 10 uM [%]
1,Cc1cc(Cl)ccc1OCC(=O)Nc1cc(C(F)(F)F)ccc1N1CCOCC1,-0.173
2,CCOC(=O)c1c(C)oc2c1c(/C=N/Cc1ccccc1)c(O)c1ccccc12,-3.21
3,CC(C)(C)C1CCC(N2CCN(c3ccc(F)cc3)CC2)CC1 (stereo not shown),1.57
4,O=C(CO)c1ccc2cc[nH]c2c1,0.66
5,O=C(CCc1nnc2n(CCc3ccccc3)c(=O)c3ccccc3n12)N1CCc2ccccc2C1,2.6
6,CC(C)Cc1nnc(NS(=O)(=O)c2ccccc2)s1,2.04
7,CCc1c(C)nc(N2CCOCC2)nc1O,-2.91
8,COCCN(Cc1cccs1)Cc1cc(=O)oc2ccc(OC)cc12,1.67
9,Cc1cc(C(=O)O)ccc1-c1ccc(/C=C2\SC(=O)N(CC(=O)N3CCOCC3)C2=O)o1,11.2
10,c1ccc(CCN2CCC(NC(c3ccccc3)c3ccccc3)CC2)cc1,3.19
11,O=C(Cc1ccccc1)N1N=C(C(F)F)CC1(O)C(F)F (stereo not shown),0.5
12,NC(=O)c1ccc(-n2c(CCC(=O)O)ccc2-c2cccs2)cc1,-4.75
13,CCOc1ccc(C(=O)Nc2ccc(F)cc2)cc1,2.06
14,Cc1c(C)n(Cc2ccccc2)c2ccc(C(=O)NCc3ccccn3)cc12,-1.55
15,COc1ccccc1N1CCN(C(=O)CCCC(=O)O)CC1,0.751
16,CCNC(=O)N1c2ccc(C)cc2C2CN(C)CCC21 (stereo not shown),-0.261
17,CC(Oc1ccc(Cl)cc1Cl)C(=O)NCc1ccc(F)cc1 (stereo not shown),-5.92
18,CC(=O)NCC/N=C/C1=C(O)c2sccc2N(Cc2ccccc2)S1(=O)=O,0.886
19,CC(Sc1nc(-c2ccccc2)cc(C(F)(F)F)n1)C(=O)NCCCn1ccnc1 (stereo not shown),0.778
20,COc1ccc(CCNC(=O)c2ccc3c(c2)ncn3-c2ccc(F)cc2F)cc1OC,16.4
21,O=c1/c(=C\c2cccc(O)c2)sc2nc3ccccc3n12,-0.142
22,O=C(COc1ccc(Cl)cc1)Nc1ccc(S(=O)(=O)N2CCCCCC2)cc1,-2.3

row,SMILES,% Inhibition @ 10 uM [%]
1,CCOC(=O)N1CCN(C(=O)CCCn2nc(C)n3c(cc4sccc43)c2=O)CC1,3.4
2,Cc1cc(C)n2nc(-c3ccc(-c4ccccc4)cc3)cc2n1,-4.8
3,CCCCN(CC)c1ncnc2ccc(Br)cc12,2.17
4,Cc1ccc(C2CC(=O)NC3=C2C(=O)CCC3)cc1Br (stereo not shown),-3.21
5,COc1ccc(CCNC(=O)C2CCN(S(=O)(=O)N3CCC4(CC3)OCCO4)CC2)cc1OC,-1.21
6,CC1CCC(NC(=O)Cn2ncc3c4ccccc4n(Cc4ccccc4F)c3c2=O)CC1 (stereo not shown),-3.35
7,O=C(COC(=O)c1ccco1)c1ccc(-n2nncc2-c2ccco2)cc1,-0.349
8,COc1cccc2c1cc1c(=O)n(CC(=O)N3CCCCCC3)nc(C)n12,-3.47
9,CCN(Cc1ccccc1)C(=O)c1cccc([N+](=O)[O-])c1,-4.3
10,COc1cc(/C=C2/NC(=O)N(Cc3ccccc3F)C2=O)cc(Cl)c1O,-1.28
11,COCCN1C(=O)c2ccccc2C(C(=O)Nc2cccc(C)n2)C1c1c[nH]c2ccccc12 (stereo not shown),5.62
12,Nc1nnc(-c2cc(-c3cccs3)on2)o1,-1.72
13,CC1CCc2c(sc(NC(=O)C3CC3c3ccccc3)c2C(N)=O)C1 (stereo not shown),-4.21
14,Cc1nc2sc(C(=O)c3ccc4c(c3)OCO4)c(N)c2c(-c2cccs2)c1C#N,3.62
15,CN1C(=O)c2ccccc2C(C(=O)N2CCC3(CC2)OCCO3)C1c1cccs1 (stereo not shown),1.94
16,CS(=O)(=O)N(Cc1ccc(C(=O)NCc2ccc(Cl)cc2)cc1)c1ccccc1,1.59
17,NC=C1C(=O)N(CCc2ccccc2)C(=O)N(CCc2ccccc2)C1=O,2.79
18,O=C(CSCc1nc(O)c2nnn(Cc3ccc(F)cc3)c2n1)NC1CCCCCC1,0.238
19,Cc1ccc(-c2nc3n(n2)C(=O)CC(c2ccco2)S3)cc1 (stereo not shown),3.6
20,COc1ccc(NC(=O)CN(c2ccccc2C)S(=O)(=O)c2ccccc2)cc1OC,-3.09
21,Cc1cccc(C2C(=O)c3ccccc3C2=O)c1C,8.57
22,ClC1(Cl)CC1CSc1nc[nH]n1 (stereo not shown),-3.63

row,SMILES,% Inhibition @ 10 uM [%]
1,CCOc1ccc(Sc2cc(C(=O)NCCN3CCOCC3)c3ccccc3n2)cc1,-1.79
2,Cc1ccc(C(=O)Nc2ccc(Cl)c([N+](=O)[O-])c2)cc1,-0.414
3,CC(Cc1ccccc1F)N[C@H]1CCCCNC1=O (stereo partly shown),3.35
4,COc1ccc(-n2nc3ccc(NC(=O)COc4ccccc4C)cc3n2)cc1,1.64
5,C=CCNC(=O)/C(=C\c1ccco1)NC(=O)c1ccccc1Cl,19
6,CC1CCN(Cc2nc3c(c(=O)n(C)c(=O)n3C)n2CCCO)CC1,-3.23
7,Clc1cccc(NCc2ccc3c(c2)OCO3)c1,-5.98
8,COc1ccc(C2Nc3ccccc3C(=O)N2Cc2ccccc2)cc1CN1CCOCC1 (stereo not shown),-9.66
9,COc1cc(C(O)c2cc3c(cc2CO)OCO3)cc(OC)c1OC (stereo not shown),-1.49
10,N#Cc1nc(COc2ccccc2Cl)oc1NCc1ccc(F)cc1,-1.98
11,CCC(NC(=O)c1cc(OC)c(OC)c(OC)c1)C12CC3CC(CC(C3)C1)C2 (stereo not shown),0.503
12,C=CCn1c(=N)c(C(=O)NCC)cc2c(=O)n3ccccc3nc21,3.72
13,CC1CC(C)(C)NC(=S)N1CCC(=O)NCCc1ccc(Cl)cc1 (stereo not shown),2.73
14,Oc1ccccc1-c1n[nH]c(/C=C/c2ccccc2Cl)n1,-6.64
15,Cc1[nH]nc2c1C(c1ccccc1F)C(C#N)=C(N)O2 (stereo not shown),1.41
16,COc1cccc(-n2nnc3c(=O)n(C/C=C/c4ccccc4)cnc32)c1,1.24
17,COC(=O)c1ccc(-c2ccco2)n1CC(=O)N1CCN(c2ccccn2)CC1,-1.38
18,CCOC(=O)N1CCC(NC(=O)c2ccc3nc(N4CCCCC4)sc3c2)CC1,-2.37
19,COc1ccc(-c2ccc(C#N)c(SCC(=O)NCc3ccc(F)cc3)n2)cc1OC,-2.45
20,CCc1nnc(SCC(=O)NC2CCCCC2)nc1CC,4.52
